From PubChem BioAssay (NCATS)
Where “and” joins values, the source holds several entries; their conditions need not be identical. Identical values can stand only once. Inconclusive means that the source gave no clear call. Such entries were picked first, then a sample of the others. For some of these results: Where the call is inconclusive, the potency comes from a doubtful curve fit. Calls of active or inactive are those of the source. Unless noted, the call rests on the fitted dose curve; in most records, active means well fitted curve in the direction sought with a large enough effect; inconclusive means small, poorly fitted or top-dose-only effect, or another doubt; inactive means no such curve, though single readings can be large; an effect the other way counts as inactive or inconclusive.

Assays:
[1] = target: Aldehyde dehydrogenase, mitochondrial (Homo sapiens) (UniProt P05091); test: qHTS for Inhibitors of the Aldehyde Dehydrogenase Family (ALDH2) Confirmatory screens (AID 2061303; active means well fitted inhibition curve with a large enough effect; inconclusive means small, poorly fitted or top-dose-only effect; inactive means no such curve, though single readings can be large or run the other way; title and protocol of this record describe different tests; further: potency means the concentration at half of the fitted maximal effect; nearly all actives have a fitted effect of over 45% in size); conditions: ALDH inhibition qHTS; activity change, negative = inhibition: at 45.4 µM (top of the series)
[2] = qHTS for Inhibitors of the Aldehyde Dehydrogenase Family (ALDH1A2, ALDH1A3, ALDH2, ALDH3A1) (AID 2061307); conditions: ALDH inhibition qHTS; activity change, negative = inhibition: at 50.3 µM (top of the series) unless noted; further: nearly all actives have a fitted effect of over 50% in size; on activity change, negative = inhibition: on the % scale 0 is the no-effect control and ±100 the full control effect; on potency: test system not described further here; potency means the concentration at half of the fitted maximal effect
[3] = target: Retinaldehyde dehydrogenase 3 (Homo sapiens) (UniProt P47895); test: qHTS for Inhibitors of the Aldehyde Dehydrogenase Family (ALDH1A3) Confirmatory screens (AID 2061311); conditions: ALDH inhibition qHTS; activity change, negative = inhibition: at 46 µM (top of the series); series mostly up to 46 µM; further: potency means the concentration at half of the fitted maximal effect; nearly all actives have a fitted effect of over 60% in size
[4] = target: Retinal dehydrogenase 2 (Homo sapiens) (UniProt O94788); test: qHTS for Inhibitors of the Aldehyde Dehydrogenase Family (ALDH1A2) Confirmation screens (AID 2061314); conditions: ALDH1A2 enzyme inhibition qHTS confirmation; activity, negative = inhibition: at 45.9 µM (top of the series) unless noted; series mostly up to 45.9 µM; further: potency means the concentration at half of the fitted maximal effect; nearly all actives have a fitted effect of over 65% in size
[5] = target: Aldehyde dehydrogenase 1A1 (Homo sapiens) (UniProt P00352); test: qHTS for Inhibitors of the Aldehyde Dehydrogenase Family (ALDH1A1) Confirmatory screens (AID 2061316); conditions: ALDH inhibition qHTS; activity change, negative = inhibition: at 47.3 µM (top of the series); series mostly up to 47.3 µM; further: potency means the concentration at half of the fitted maximal effect; nearly all actives have a fitted effect of over 65% in size
[6] = BET inhibitor-based combinations targeting novel dependencies in MECOM-rearranged (r) AML: SET-2 cell line (AID 2202231); conditions: SET-2 AML cells viability, CellTiter-Glo luminescence, 48 h; viability: stronger effect = lower value, concentration not given here;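 further: plate controls were DMSO treated cells for no effect and wells without cells for full effect; nearly all actives have a fitted effect of over 35% in size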
Summary of the method: (§1)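 Each compound was tested at eleven concentrations on cells seeded at 500/well. After two days' incubation, ATP-based luminescence reported viability; responses relative to DMSO and blank wells yielded AUC and cell-line-centred Z-AUC.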

[7] = BET inhibitor-based combinations targeting novel dependencies in MECOM-rearranged (r) AML: OCI-AML3 cell line (AID 2202232); conditions: CellTiter-Glo luminescence, 48 h; Potency: OCI-AML3 viability; viability (% of control): at 46 µM (top of the series); further: potency means the concentration at half of the fitted maximal effect; nearly all actives have a fitted effect of over 35% in size
Summary of the method: as §1

[8] = BET inhibitor-based combinations targeting novel dependencies in MECOM-rearranged (r) AML: HNT-34 cell line (AID 2202234); conditions: HNT-34 AML viability, CellTiter-Glo luminescence, 48 h; series mostly up to 46 µM; further: potency means the concentration at half of the fitted maximal effect; nearly all actives have a fitted effect of over 35% in size
Summary of the method: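 First, 500 cells per well were seeded; next, drugs were pinned as 11-point doses; then plates sat 48 hr in the incubator; finally CellTiter-Glo was added and luminescence read, with AUC and Z-AUC computed.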

[9] = BET inhibitor-based combinations targeting novel dependencies in MECOM-rearranged (r) AML: AML-191 cell line (AID 2202236;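 further: plate controls were vehicle wells for no effect and wells without cells for full effect; nearly all actives have a fitted effect of over 35% in size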); conditions: AML-191 viability, CellTiter-Glo luminescence, 48 h; series mostly up to 46 µM
Summary of the method: as §1

[10] = target: Retinaldehyde dehydrogenase 3 (Homo sapiens) (UniProt P47895); test: qHTS for Inhibitors of the Aldehyde Dehydrogenase Family (ALDH1A3) Primary screen (AID 2061315); conditions: ALDH inhibition qHTS; activity change, negative = inhibition: at 56 µM (top of the series) unless noted; further: potency means the concentration at half of the fitted maximal effect
Tags describe the fitted curve by direction and shape.

| Compound | Potency [1] | Potency [2] | Potency [3] | Potency [4] | Potency [5] | viability [6] | Potency [7] | Potency [8] | Potency [9] | Potency [10] |
| --- | --- | --- | --- | --- | --- | --- | --- | --- | --- | --- |
| Cc1ccc(-n2c(C)cc(-c3nnc4n3CCCCC4)c2C)cc1 | inconclusive: 22.5 µM [inhibitor, partial curve, poor fit] | inactive | inconclusive: 22.5 µM [inhibitor, partial curve] | inconclusive: 22.5 µM [inhibitor, partial curve, poor fit] | active: 20.1 µM | inactive: 104% | inconclusive: 29.5 µM [inhibitor, partial curve, poor fit] | inconclusive: 26.3 µM [inhibitor, single point] | inactive | – |
| COc1ccc(C2Nc3ccccc3C(=O)N2Cc2ccc(CNC(=O)CO)cc2)cc1COc1ccc(NC(C)=O)cc1 (centres undefined) | inconclusive: 1.12 µM [inhibitor, full curve] | active: 4.49 µM | inconclusive: 31.8 µM [inhibitor, partial curve, poor fit] | active: 12.7 µM | inconclusive: 28.3 µM [inhibitor, single point] | – | – | – | – | – |
| CC(=O)c1ccc(N2CCN(S(=O)(=O)c3ccc4c(c3)C(Cl)(Cl)C(=O)N4)CC2)cc1 | inconclusive: 1.26 µM [inhibitor, full curve, poor fit] | inconclusive: 3.98 µM [inhibitor, full curve, poor fit] | active: 2.82 µM and active: 1.12 µM | – | inconclusive: 6.34 µM [inhibitor, full curve] | – | – | – | – | inconclusive: 14.1 µM [inhibitor, partial curve] and inconclusive: 8.91 µM [inhibitor, partial curve] |
